From PubChem BioAssay AID686979 (National Center for Advancing Translational Sciences (NCATS), 2013)
Among all 420,000 compounds or so, about 50,000 (12%) were called active. This list was built around the results that the source calls inconclusive (neither active nor inactive); the mix of calls is not that of the screen. Calls come from the whole dose curve; as a rule, active = well fitted inhibition curve with a large enough effect; inconclusive = small, poorly fitted or top-dose-only effect; inactive = flat fitted curve, though single readings scatter. No potency is given beside an inconclusive call; the fits are too rough.

Test: qHTS for Inhibitors of human tyrosyl-DNA phosphodiesterase 1 (TDP1): qHTS in cells in presence of CPT; note: nearly all actives have a fitted effect of over 55% in size
Conditions: chicken DT40 Tdp1-/-;hTDP1 cells + 20 nM CPT, ATP luminescence, 48 h; activity change, negative = growth inhibition: at 46.2 µM (top of the series)
Summary of the method: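 Chicken DT40 Tdp1-/- cells stably complemented with human TDP1 were seeded at 400 cells/well in medium containing 20 nM camptothecin, exposed to pin-transferred compounds, and grown at 37 °C for at least 48 hr. Viability was read as ATP luminescence.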
% is set by controls: 0 for no effect and ±100 for the full control effect; potency is the fitted concentration of half-maximal effect; tags give direction and shape of the fitted curve.

Compound	Potency	activity change, negative = growth inhibition
COc1ccc(CN2CCCN(CC(=O)Nc3ccc(Br)cc3F)S2(=O)=O)cc1	inconclusive [inhibitor, single point]	
COc1cccc(/C=N/NC(=O)CNC(=O)c2ccc3c(c2)OCCO3)c1O	active: 16.4 µM	
COCCN1CN(S(=O)(=O)c2ccc(Cl)cc2)c2nc3ccccc3nc21	inconclusive [inhibitor, single point]	
CCOC(=O)c1c(C)[nH]c(C)c1S(=O)(=O)N(C)CC(=O)Nc1cccc(Cl)c1C	inconclusive [inhibitor, single point]	
CC1CN(C(=S)Nc2ccc(S(N)(=O)=O)cc2)CC(C)O1 (stereo not given)	inactive	
COc1ccc(C)cc1NC(=O)COC(=O)c1c(C)nn(-c2ccccc2)c1C	active: 20.6 µM	
Cc1c(Cl)cccc1NC(=O)c1cc(-c2cccs2)on1		inconclusive: -33.1% [inhibitor]
CN(NC(=O)C1CC(=O)N(c2ccccc2)C1)C1=NS(=O)(=O)c2ccccc21 (stereo not given)	inactive	
COc1cccc(COc2ccc3ccc(=O)oc3c2)c1	inconclusive [inhibitor, partial curve]	
COc1cccc(-n2cc(CN(C)Cc3nc(Cc4cccc(F)c4)no3)cn2)c1	inconclusive [inhibitor, single point]	
CC1=C(c2ccc(C)c(C)c2)S(=O)(=O)N=C1N1CCN(c2cccc(C)c2)C(C)C1 (stereo not given)	active: 18.4 µM	
CCCN(CCC)Cc1c(C(=O)N/N=C/CCc2ccccc2)nnn1-c1nonc1N	inactive	
Cc1ccc(C)c(N/C(N)=N/c2nc(C)cc(C)n2)c1	active: 20.6 µM	
O=C(NCc1cccs1)C1CCN(S(=O)(=O)c2ccc(Cl)cc2)CC1	inactive	
Cc1nn(-c2ccccc2)cc1/C=N/NS(=O)(=O)c1ccccc1	inactive	
COc1cc(/C=C2\SC(=O)N(c3ccccc3Cl)C2=O)cc([N+](=O)[O-])c1O	inconclusive [inhibitor, single point]	
CC(C)c1cccc(C(C)C)c1NC(=O)CNCc1ccccc1F	inconclusive [inhibitor, single point]	
CCOc1ccc(NC(=O)CC2Nc3cccc4cccc(c34)NC2=O)cc1 (stereo not given)	inconclusive [inhibitor, partial curve, poor fit]	
CC(=O)COC(=O)C1CCN(S(=O)(=O)c2cc([N+](=O)[O-])ccc2Cl)CC1	inconclusive [inhibitor, single point]	
CN(C(=O)CSc1nc2ccc(NC(=O)COc3ccc(F)cc3)cc2s1)c1ccccc1	active: 5.8 µM	
COc1cccc(C(=O)OCC(=O)N2CCc3ccccc3C2)c1	inactive	
O=C(c1ccccc1Cl)N1CCCC(c2nc3c(nnn3Cc3ccc(F)cc3F)c(=O)[nH]2)C1 (stereo not given)	inconclusive [inhibitor, single point]	
Cc1cc(NC(=O)CSc2nccn2C)n(-c2ccccc2)n1	inactive	
Cc1cc(OCC(=O)NNC(=S)NCC2CCCO2)cc(C)c1Cl (stereo not given)	inconclusive [inhibitor, single point]	
Cc1cc(-c2ccc(S(=O)(=O)Nc3cccc(C(F)(F)F)c3)s2)on1	active: 20.6 µM	

Compound	Potency	activity change, negative = growth inhibition
CC(C)Sc1ncc(Cl)c(C(=O)Nc2nc3ccc(S(C)(=O)=O)cc3s2)n1	inactive	
O=C(N/C(=C/c1ccc(Cl)cc1)c1nc2ccccc2[nH]1)c1ccco1	inconclusive [inhibitor, single point]	
CC1(c2ccccc2Cl)NC(=O)N(CC(=O)N2CCc3ccccc32)C1=O (stereo not given)	inconclusive [inhibitor, single point]	
Cn1c(=O)c2c(nc(/C=C/c3cccc(Cl)c3)n2C)n(C)c1=O	inactive	
CCOC(=O)c1ccc(NC(=O)C2=C(C)C(=O)OC23CCCCCC3)cc1	inconclusive [inhibitor, single point]	
COc1ccc(NC(=O)c2c(N)no[n+]2[O-])c(OC)c1	inactive	
Cc1cc(C)nc(Nc2nc3ccccc3o2)n1	inactive	
Cc1c(C(=O)N(C)c2ccccc2)oc2c1C(O)CC(C)(C)C2 (stereo not given)	inconclusive [inhibitor, single point]	
COc1ccc(-c2[nH]ncc2/C=C(/C#N)C(=O)NC2CCCCC2)cc1	inconclusive [inhibitor, partial curve]	
Cc1ccc(-c2nnn(C(C)C(=O)N3c4ccccc4CCc4ccccc43)n2)cc1 (stereo not given)	inconclusive [inhibitor, partial curve, poor fit]	
Cc1c(C)n(CCc2ccccc2)c2ncnc(NCCCN(C)C)c12	inconclusive [inhibitor, single point]	
COC(=O)[C@@H]1C[C@]2(Br)c3ccccc3N(S(=O)(=O)c3ccccc3)[C@@H]2N1C(=O)OC	inconclusive [inhibitor, single point]	
CC(C)c1cccc(C2=CC(=O)C[C@H](c3ccc4c(c3)OCO4)C2)c1	inconclusive [inhibitor, single point]	
C=CCN(c1ccccc1)S(=O)(=O)c1ccc2[nH]cc(C(=O)NCCOC)c(=O)c2c1	inconclusive [inhibitor, single point]	
CCN(CC)Cc1c(O)c(Cl)cc2c(C)c(C)c(=O)oc12	inactive	
CC(C)CNC(=O)COC(=O)c1c2c(nc3ccccc13)CCC2	inactive	
Cc1ccc(C(=O)O/N=C2/CC3CCC2(C)[C@@]3(C)CBr)cc1 (stereo not given in full)		inconclusive: -32.2% [inhibitor]
Cc1cc(C)c(NC(=O)C2CCN(C(=O)N3CC(C)Oc4ccc(Cl)cc43)CC2)c(C)c1 (stereo not given)	inconclusive [inhibitor, single point]	
CSCCC(NC(=O)c1ccccc1)C(=O)N1CCN(C(c2ccccc2)c2ccccc2)CC1 (stereo not given)	inconclusive [inhibitor, single point]	
C=CCN(C(=O)CSc1nc2ccsc2c(=O)n1Cc1ccccn1)c1ccccc1	inactive	
Cc1cc(C)cc(NS(=O)(=O)c2ccc(-c3cc(C)no3)s2)c1	active: 2.59 µM	
COc1ccc(NC(=O)Cn2c(=O)n(Cc3nc(C)no3)c(=O)c3cc4c(cc32)OCO4)cc1	inactive	
O=C(CSc1nnc(CNC(=O)c2ccc(F)cc2)o1)NCc1ccc2c(c1)OCO2	inactive	
COc1ccc2[nH]c(=O)c(CN(C)C(=O)c3ccncc3)cc2c1	inactive	
Cc1ccc(OCCN2C(=O)C(=O)c3cc(C)ccc32)cc1	active: 0.92 µM	

Compound	Potency	activity change, negative = growth inhibition
Cc1ccc(CNC(=O)CCCNC(=O)c2ccc(Cl)cc2)n1C		inconclusive: -30.2% [inhibitor]
Cc1ccc(NC(=O)CCCCCCCCCCC2COCCO2)c(C)c1 (stereo not given)	active: 20.6 µM	
Cc1cccc(CSc2nnc(-c3ccco3)o2)c1	inactive	
Cc1ccc(S(=O)(=O)CCc2nc3ccccc3[nH]2)cc1C	inactive	
Cc1nc(C(F)(F)F)ccc1C(=O)N1CCC(C)(C(=O)NS(=O)(=O)C2CC2)C1 (stereo not given)	inactive	
CN(C)CCCc1cc(C(=O)Nc2ccc(-c3ccncc3)cc2)ccc1O	inconclusive [inhibitor, single point]	
Nc1nc(N)c2ncn(C3C=CC(CO)C3)c2n1 (stereo not given)	active: 6.51 µM	
CN(c1ccccc1)S(=O)(=O)c1cccc(NC(=O)c2ccc(=O)[nH]c2)c1	inconclusive [inhibitor, single point]	
CCc1[nH]nc(C(=O)N2CCCC(N3CCN(c4ccccc4C)CC3)C2)c1C (stereo not given)	active: 16.4 µM	
CCn1ncc(/C=N/NS(=O)(=O)c2ccc(Cl)cc2)c1C	inactive	
N/C(=N\N=C\c1ccc(Br)o1)c1nonc1N	inactive	
CSc1ccccc1-c1nnc(-c2ccc(Cl)cc2)o1	inconclusive [inhibitor, single point]	
O=C(c1ccccc1)c1coc2ccc(O)c(CN3CCOCC3)c12	inconclusive [inhibitor, single point]	
Cn1c(=O)[nH]c(=O)c2c1nc(N1CCCC1)n2CCCSc1nnnn1-c1ccccc1	active: 20.6 µM	
CC1(C)CC2(CCO1)OC(=O)CC2C(=O)Nc1ccc(Cl)cc1[N+](=O)[O-] (stereo not given)		inconclusive: 9.61% [inhibitor]
CCOC(=O)C1CCN(c2c([N+](=O)[O-])c(C(Cl)Cl)nn2-c2ccccc2)CC1	inconclusive [inhibitor, partial curve]	
COc1cc(-c2cc(C(=O)Nc3ccc(S(N)(=O)=O)cc3)c3ccccc3n2)cc(OC)c1OC	active: 4.11 µM	
CCC(CC)C(=O)Nc1c2c(nn1-c1ccc(OC)cc1)CS(=O)(=O)C2	inactive	
CCCCn1c(N)c(N(CCC(C)C)C(=O)c2cccc(-n3cnnn3)c2)c(=O)[nH]c1=O	inactive	
O=C(Nc1cnccn1)c1cccc(C(F)(F)F)c1	inactive	
CC(=O)N1c2ccc(S(=O)(=O)NCC3CCC(C(=O)NC4CCC(C)CC4)CC3)cc2CC1C (stereo not given)	inconclusive [inhibitor, partial curve]	
CCN(Cc1ccccc1)c1ccc(/C=N/NS(=O)(=O)c2ccc(C)c([N+](=O)[O-])c2)cc1	inconclusive [inhibitor, single point]	
Cc1ccc2nc(Nc3nc(CSc4nc5ccccc5s4)cc(=O)[nH]3)nc(C)c2c1	active: 11.6 µM	
CCOc1ncccc1C(=O)OCC(=O)c1ccc(C)c(C)c1	inactive	
CC(C)Cc1nn2c(=O)cc(COC(=O)c3cccc(NC(=O)c4cccs4)c3)nc2s1	inconclusive [inhibitor, partial curve]	
